Out of some 310,000 compounds screened, about 14,000 (4.5%) showed an effect of 50% or more. The effect is printed as a negative number. Some of the results follow.
target: human ether-à-go-go-related gene (hERG) potassium channel (human, UniProt Q12809); experiment: primary screen, population patch clamp on CHO cells stably expressing hERG
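Note: peak tail current of the secondary pulse compared with the same well before compound.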

Sequence of human ether-à-go-go-related gene (hERG) potassium channel (Q12809 whole entry, looked up): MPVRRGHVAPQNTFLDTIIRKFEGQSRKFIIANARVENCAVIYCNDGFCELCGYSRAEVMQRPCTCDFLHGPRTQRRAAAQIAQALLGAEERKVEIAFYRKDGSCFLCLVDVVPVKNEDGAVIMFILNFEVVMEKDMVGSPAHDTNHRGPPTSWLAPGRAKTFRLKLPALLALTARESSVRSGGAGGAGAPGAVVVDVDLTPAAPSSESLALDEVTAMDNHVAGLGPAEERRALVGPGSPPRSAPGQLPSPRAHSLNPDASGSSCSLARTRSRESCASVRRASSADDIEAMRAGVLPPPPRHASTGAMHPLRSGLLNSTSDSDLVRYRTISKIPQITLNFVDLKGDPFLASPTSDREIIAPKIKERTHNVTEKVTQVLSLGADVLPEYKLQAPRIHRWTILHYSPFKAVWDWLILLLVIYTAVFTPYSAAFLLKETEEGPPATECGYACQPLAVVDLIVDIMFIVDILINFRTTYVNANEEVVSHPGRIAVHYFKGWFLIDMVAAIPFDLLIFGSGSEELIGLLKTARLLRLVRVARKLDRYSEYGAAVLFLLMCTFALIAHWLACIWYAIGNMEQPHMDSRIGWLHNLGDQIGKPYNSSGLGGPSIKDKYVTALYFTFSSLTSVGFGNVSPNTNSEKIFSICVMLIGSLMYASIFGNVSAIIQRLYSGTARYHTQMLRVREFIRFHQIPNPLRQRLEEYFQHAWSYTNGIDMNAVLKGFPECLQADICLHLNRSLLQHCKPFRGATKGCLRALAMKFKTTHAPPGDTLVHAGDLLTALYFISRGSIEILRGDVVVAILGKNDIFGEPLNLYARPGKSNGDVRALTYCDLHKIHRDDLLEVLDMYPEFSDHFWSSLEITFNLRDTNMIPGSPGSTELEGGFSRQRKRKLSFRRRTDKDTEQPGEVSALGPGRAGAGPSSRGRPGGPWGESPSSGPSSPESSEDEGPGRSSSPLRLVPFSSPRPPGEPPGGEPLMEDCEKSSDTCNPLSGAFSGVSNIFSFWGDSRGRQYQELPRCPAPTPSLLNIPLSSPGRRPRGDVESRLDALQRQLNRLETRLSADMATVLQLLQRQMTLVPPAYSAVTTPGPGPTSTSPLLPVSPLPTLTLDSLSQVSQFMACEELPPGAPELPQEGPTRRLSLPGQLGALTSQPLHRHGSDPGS

Row | SMILES | hERG current change (%, negative = inhibition) at 10uM
1 | CC1(C)CC(=O)C2=C(C1)N(Cc1ccco1)C(=O)NC2(C(F)(F)F)C(F)(F)F | 15.6%
2 | O=C(CCCOc1ccccc1)N1CCN(c2ccc(F)cc2)CC1 | -42%
3 | CCn1c(-c2csc(C(C)C)c2)n[nH]c1=S | 37.1%
4 | NS(=O)(=O)c1ccc(NC(=O)COC(=O)COc2cccc(C(F)(F)F)c2)cc1 | 23%
5 | CCN1CCCC1CNC(=O)c1cc2c(-c3cccc(OC)c3)nn(C)c2s1 (stereo not shown) | -46.3%
6 | O=C(CSCc1cccc(F)c1)N1CCN(c2ccccc2)CC1 | -19.2%
7 | COc1ccc(CCNC(=O)COc2ccc(S(=O)(=O)N3CCOCC3)cc2)cc1OC | -4.85%
8 | Cc1cc(C)cc(NC(=S)N2CC(C)OC(C)C2)c1 (stereo not shown) | 15.5%
9 | CC1(C)C2CCC(C2)C1(C)NC(=O)CN1CCOCC1.Cl (stereo not shown) | 1.1%
10 | CCc1cc(SC#N)cc(CC)c1NC(=O)CCl | 22.3%
11 | CCCCN(C(=O)CCC(=O)Nc1cc(C)on1)C(C(=O)NC1CCCC1)c1ccc(OC)cc1 (stereo not shown) | -20%
12 | COc1ccc(S(=O)(=O)N2CCN(C)CC2)cn1 | 30.7%
13 | O=C(COc1cccc(-n2cnnn2)c1)N1CCOCC1 | 2.13%
14 | Cc1ccc(S(=O)(=O)N2CCC(C(=O)Nc3nnc(C4CCCC4)s3)CC2)cc1 | -2.6%
15 | COCCN1C(=O)c2ccc(C(=O)Nc3nccs3)cc2C1=O | -25.1%
16 | O=C(C1=COCCO1)N(Cc1nnc(-c2ccccc2Cl)o1)C1CC1 | 2.19%
17 | O=C(Nc1cccnc1)/C(N=Nc1ccc(Cl)c(C(F)(F)F)c1)=C(\O)c1ccccc1 | 29.3%
18 | CCOC(=O)N1CCN(C(=O)CSc2ccc(-c3ccc(OC)cc3)nn2)CC1 | -14.7%
19 | O=C(NCCO)c1nsnc1NCCCl | -17.7%
20 | COc1cc(OC)c(C(=O)NCC2CCCO2)cc1OC (stereo not shown) | 19.3%

Row | SMILES | hERG current change (%, negative = inhibition) at 10uM
21 | O=C1NCC(CN(c2ccccc2)c2ccccc2)O1 (stereo not shown) | -16.4%
22 | CCCCNC(=O)COC(=O)c1ccc(SC)cc1OC | 16.2%
23 | Cc1cccc(C)c1NC(=S)NCCCN1CCCC1=O | 2.28%
24 | CSc1ccccc1C(=O)NCc1ccc(S(N)(=O)=O)cc1 | 5.7%
25 | O=C(Nc1nc2ccc(F)cc2s1)c1cccc(S(=O)(=O)N2CCc3ccccc32)c1 | 3.9%
26 | Cc1ccc(N(CC(=O)NC2CCCCC2)S(=O)(=O)c2cccs2)cc1 | 5.9%
27 | O=Cc1ccc(OC2OCCOC2Oc2ccc(C=O)cc2)cc1 (stereo not shown) | -45.2%
28 | CCc1nonc1NC(=O)COc1ccc(Cl)c(C)c1 | 8.59%
29 | O=C1CCCN1CCNC(=S)Nc1ccccc1 | -5.35%
30 | COc1ccccc1OCC(=O)N/N=C1\CCCCc2ccccc21 | -18.1%
31 | CCc1ccc(NC(=O)C2CCN(S(=O)(=O)c3ccc4c(c3)N(C(C)=O)CCO4)CC2)cc1 | -7.52%
32 | CC(C)(C)NC(=O)CN(Cc1cccs1)C(=O)CCN1CCc2ccccc21 | -18.9%
33 | COc1cccc(C(=O)Nc2ccc(N3CCN(C(=O)c4cccs4)CC3)cc2)c1 | -19.7%
34 | O=C(/C=C/c1ccc(Cl)cc1Cl)Nc1ccc(CN2CCOCC2)cc1 | -17.8%
35 | CCOCCc1nnc(NC(=O)Cc2c(F)cccc2Cl)s1 | -1.8%
36 | COc1ccc(CN2CCCC(C(=O)N3CCCC3)C2)c(OC)c1.O=C(O)C(=O)O (stereo not shown) | -9.41%
37 | Cc1cc(NS(=O)(=O)c2ccc(NC(=O)C3CCCCC3)cc2)no1 | 20.8%
38 | COc1cccc(C(=O)N/N=C(\C)CC(=O)Nc2ccc(N(C)C)cc2)c1 | 5.85%
39 | O=C(Nc1ccc2oc(-c3cccc4ccccc34)nc2c1)c1ncn[nH]1 | 2.72%
40 | CCOC(=O)C1CCCN(C(=O)c2ccc(C)c([N+](=O)[O-])c2)C1 (stereo not shown) | 12.4%

Row | SMILES | hERG current change (%, negative = inhibition) at 10uM
41 | O=C(Nc1cccc(-c2cn3cccnc3n2)c1)c1ccc(Br)o1 | -13.2%
42 | COCCCNS(=O)(=O)c1ccc2[nH]c(=O)[nH]c2c1 | 3.04%
43 | O=C(COC(=O)c1cccc(NS(=O)(=O)c2ccc(F)c(F)c2)c1)NC(=O)NC1CCCC1 | 16.5%
44 | CSc1nc(C)nc2c1c(=O)n(C)c(=O)n2C | -9.42%
45 | COc1ccc(CCN2C(=O)c3ccccc3C2(O)c2ncc[nH]2)cc1OC (stereo not shown) | 15.8%
46 | Cc1cc(NC(=O)C2CC(c3c(F)cccc3Cl)=NO2)n(-c2ccccc2)n1 (stereo not shown) | -9.57%
47 | Cn1c(=O)[nH]c(=O)c2[nH]c(CN3CCN(C(=O)c4ccco4)CC3)nc21 | -13.1%
48 | O=C(O)CCC(=O)Nc1ccc(/C=C/C(=O)C2CC2)cc1 | 23.8%
49 | O=c1[nH]cc(N(CCO)CCO)c(=O)[nH]1 | 11.5%
50 | Cc1c(NC(=O)C(C)OC(=O)c2cccc(S(=O)(=O)N3CCOCC3)c2)c(=O)n(-c2ccccc2)n1C (stereo not shown) | 8.34%
51 | C=CCN1C(=O)CSc2ccc(C(=O)N3CCC4(CC3)OCCO4)cc21 | -4.68%
52 | Cc1ccc(N2CCN(CC(O)COc3cccc(C)c3)CC2)cc1 (stereo not shown) | -55.1%
53 | Cc1cccc[n+]1CCCCCCCCCC[n+]1ccccc1C.[Br-] | 37.8%
54 | Nc1c(C(=O)CSc2nnc(-c3ccccc3F)o2)c(=O)[nH]c(=O)n1C1CC1 | 15.7%
55 | Cn1c(CCN2CCCCC2)nc2cc(NS(=O)(=O)c3ccc(Cl)cc3)ccc21 | -73.8%
56 | OC(CNCc1ccc(Cl)cc1)C(F)(F)F (stereo not shown) | 4.86%
57 | Cc1cc(N2CCN(C)CC2)nc2ccc(NC(=O)c3ccc4c(c3)OCO4)cc12 | -62.2%
58 | CC(C)NC(=O)NC(=O)COC(=O)/C=C/c1ccccc1[N+](=O)[O-] | 22.4%
